Assay results reported in PubChem BioAssay AID686970 (National Center for Advancing Translational Sciences (NCATS), 2013).
Among all 360,000 compounds or so, about 6,000 (1.7%) were called active. Calls come from the whole dose curve; as a rule, active = well fitted cell-killing curve with a large enough effect; inconclusive = small, poorly fitted or top-dose-only effect, or effect the other way; inactive = flat fitted curve, though single readings scatter. Inconclusive means that the source gave no clear call.

Assay: qHTS for induction of synthetic lethality in tumor cells producing 2HG: qHTS for the HT-1080-NT fibrosarcoma cell line;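 note: NT is the 2HG producing partner of a matched IDH1 knockdown line; 0% = DMSO-treated cells and -100% = media-only wells without cells; nearly all actives have a fitted effect of over 55% in size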
Settings: HT-1080-NT fibrosarcoma viability, CellTiter-Glo ATP luminescence, 48 h; activity, negative = less viability: at 46.1 µM (top of the series) unless noted
Source text: Unbiased genomic sequencing for 22 glioma genomes found recurrent mutation of IDH1 on chromosome 2q33, a gene encoding the cytosolic isoform of IDH1 associated with the tricarboxylic acid cycle (TCA) that catalyzes the oxidative decarboxylation of isocitrate, yielding alpha-ketoglutarate and CO2 via NADP+ to NADPH conversion. Subsequent studies confirmed the recurrent IDH mutations in up to 70% of secondary gliomas and in 10% of AML cases. […]
Suspensions of trypsinized HT-1080-NT cells were dispensed into white, tissue culture-treated, solid 1536-well plates at 5uL/well (750 cells/well final concentration) in RPMI medium supplemented with 5% FBS. […] The plates were measured on a PerkinElmer ViewLux plate reader for luminescent signal (clear filter, 1 sec exp). […]
Concentration-response curves were fitted to the signals arising from the resulting luminescence. The concentration-effect curves were then classified based on curve quality (r2), response magnitude and degree of measured activity, and compounds were subsequently categorized based on their curve class.
For CCCCNS(=O)(=O)CCNCc1ccccc1OC, the activity, negative = less viability was inconclusive: 29.5%.
